Molecules are shown by their SMILES. The list shows a part of the results. Most values come without repeats; read them as rough.

The text below walks through data of the supplement of paper PMC4604168 (melanoma cell lines).
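Note: cell number obtained by counting DAPI-stained nuclei in high-throughput microscope images with image analysis software, screen run in 1,536-well plates.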

This experiment has as its system SkMel2. Nature of the experiment: cell count relative to DMSO control; melanoma cells; higher = more viable cells. The conditions noted are these: library dose: low library concentration; 72 h.
For the compound `Nc1nc(F)nc2c1ncn2[C@@H]1O[C@H](CO)[C@@H](O)[C@@H]1O` [fludarabine] + O=C(O)C(=O)Nc1sc2c(c1C(=O)O)CCNC2 [TCS401] (first compound 0.2 µM, partner dose 1.66667 µM), the cell count was 7.57%. The compound `Nc1ncn([C@H]2C[C@H](O)[C@@H](CO)O2)c(=O)n1` [decitabine] + COc1cc(Nc2ncc(F)c(Nc3ccc4c(n3)NC(=O)C(C)(C)O4)n2)cc(OC)c1OC [Tamatinib] (first compound 0.1 µM, partner dose 0.4 µM) yielded a cell count of 99.4%. Next, `Nc1nc(F)nc2c1ncn2[C@@H]1O[C@H](CO)[C@@H](O)[C@@H]1O` [fludarabine] + CCc1ccc(CCOc2ccc(CC3SC(=O)NC3=O)cc2)nc1 [pioglitazone] (first compound 0.2 µM, partner dose 2 µM): 8.36%; `Nc1ccn([C@@H]2O[C@H](CO)[C@@H](O)C2(F)F)c(=O)n1` [gemcitabine] + O=C(Nc1cccc(Cl)c1)Nc1ncc(CCNc2ncnc3ccsc23)s1 [SNS314] (first compound 0.0004 µM, partner dose 0.0008 µM): 93.5%; `Nc1ccn([C@@H]2O[C@H](CO)[C@@H](O)C2(F)F)c(=O)n1` [gemcitabine] + CN(C)S(=O)(=O)c1ccc2c(c1)/C(=C/c1cc3c([nH]1)CCCC3)C(=O)N2 [SU6656] (first compound 0.0004 µM, partner dose 0.4 µM): 96.7%. Next, `Nc1ncn([C@H]2C[C@H](O)[C@@H](CO)O2)c(=O)n1` [decitabine] + COc1cc(N2CCC(N3CCN(C)CC3)CC2)ccc1Nc1ncc(Cl)c(Nc2ccccc2S(=O)(=O)C(C)C)n1 [NVP-TAE684] (first compound 0.1 µM, partner dose 0.08 µM): 88.2%; `CC(=O)O[C@@]12CO[C@@H]1C[C@H](O)[C@@]1(C)C(=O)[C@H](O)C3=C(C)[C@@H](OC(=O)[C@H](O)[C@@H](NC(=O)OC(C)(C)C)c4ccccc4)C[C@@](O)([C@@H](OC(=O)c4ccccc4)[C@H]21)C3(C)C` [Docetaxel] + CCCCCCCCCCCC1=C(O)C(=O)C=C(O)C1=O [Embelin] (first compound 0.0001 µM, partner dose 1.2 µM): 29.4%.

`CC(=O)c1c(C)c2cnc(Nc3ccc(N4CCNCC4)cn3)nc2n(C2CCCC2)c1=O` [palbociclib] + O=C(Nc1cccc(Cl)c1)Nc1ncc(CCNc2ncnc3ccsc23)s1 [SNS314] (first compound 0.04 µM, partner dose 0.0008 µM) registered a cell count of 72.3%. The compound `CC(=O)O[C@@]12CO[C@@H]1C[C@H](O)[C@@]1(C)C(=O)[C@H](O)C3=C(C)[C@@H](OC(=O)[C@H](O)[C@@H](NC(=O)OC(C)(C)C)c4ccccc4)C[C@@](O)([C@@H](OC(=O)c4ccccc4)[C@H]21)C3(C)C` [Docetaxel] + N#Cc1c(O)c2c(-c3ccc(-c4ccccc4O)cc3)csc2[nH]c1=O [A769662] (first compound 0.0001 µM, partner dose 2 µM) registered a cell count of 42.6%. `Nc1ccn([C@@H]2O[C@H](CO)[C@@H](O)C2(F)F)c(=O)n1` [gemcitabine] + CC(C)CCN1c2nc(Nc3cc(F)c(O)c(F)c3)ncc2N(C)C(=O)C1C [BID1870] (first compound 0.0004 µM, partner dose 0.2 µM) registered a cell count of 96.6%.

As for `Nc1nc(F)nc2c1ncn2[C@@H]1O[C@H](CO)[C@@H](O)[C@@H]1O` [fludarabine] + N#Cc1c(O)c2c(-c3ccc(-c4ccccc4O)cc3)csc2[nH]c1=O [A769662] (first compound 0.2 µM, partner dose 2 µM), the cell count came to 5%. For the compound `Nc1ccn([C@@H]2O[C@H](CO)[C@@H](O)C2(F)F)c(=O)n1` [gemcitabine] + Cc1cc([N+](=O)[O-])ccc1NS(=O)(=O)c1cc(Cl)ccc1Cl [FH535] (first compound 0.0004 µM, partner dose 1 µM), the cell count came to 94%. Next, `Nc1ccn([C@@H]2O[C@H](CO)[C@@H](O)C2(F)F)c(=O)n1` [gemcitabine] + Cc1cc(N2CCOCC2)cc2[nH]c(-c3c(NC[C@@H](O)c4cccc(Cl)c4)cc[nH]c3=O)nc12 [BMS536924] (first compound 0.0004 µM, partner dose 0.2 µM): 88.8%.
